{"source": "PubChem BioAssay AID488969", "about": "(Vanderbilt High Throughput Screening Facility, 2010)", "note": "The full ranking holds about 110,000 compounds; the median of “z-score” is about -0.1, and the highest 2% start at about 2. This is one part of the list. Active and inactive are the calls of the source.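 Rule for the calls: active = z-score in the third read window above 3 or below -3; inactive = the rest.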"}
{"molecular_target": "Metabotropic glutamate receptor 8 (Rattus norvegicus) (UniProt P70579)", "sequence (P70579 whole entry, looked up)": "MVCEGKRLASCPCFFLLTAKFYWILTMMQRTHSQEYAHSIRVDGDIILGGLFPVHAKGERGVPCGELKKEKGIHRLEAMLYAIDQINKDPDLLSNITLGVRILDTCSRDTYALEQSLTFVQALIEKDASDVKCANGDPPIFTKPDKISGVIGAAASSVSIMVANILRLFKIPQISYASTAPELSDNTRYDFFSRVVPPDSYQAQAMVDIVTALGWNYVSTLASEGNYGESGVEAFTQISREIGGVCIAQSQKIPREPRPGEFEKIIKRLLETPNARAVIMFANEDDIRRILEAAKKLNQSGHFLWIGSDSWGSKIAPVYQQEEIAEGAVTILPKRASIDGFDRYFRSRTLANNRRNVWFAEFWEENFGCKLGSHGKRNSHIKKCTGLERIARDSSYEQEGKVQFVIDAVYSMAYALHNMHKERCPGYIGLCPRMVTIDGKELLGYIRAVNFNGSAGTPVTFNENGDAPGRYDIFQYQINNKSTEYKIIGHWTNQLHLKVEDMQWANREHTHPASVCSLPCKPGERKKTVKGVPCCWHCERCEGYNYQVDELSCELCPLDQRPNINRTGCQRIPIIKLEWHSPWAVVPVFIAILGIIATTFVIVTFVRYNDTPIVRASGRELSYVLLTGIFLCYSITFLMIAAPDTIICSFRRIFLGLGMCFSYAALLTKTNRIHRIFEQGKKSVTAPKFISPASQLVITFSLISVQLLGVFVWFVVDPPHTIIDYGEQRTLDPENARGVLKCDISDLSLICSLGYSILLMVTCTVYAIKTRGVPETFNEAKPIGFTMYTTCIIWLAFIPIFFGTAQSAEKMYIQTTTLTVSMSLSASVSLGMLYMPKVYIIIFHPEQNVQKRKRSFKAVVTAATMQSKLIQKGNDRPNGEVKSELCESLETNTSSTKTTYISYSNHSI", "experiment": "rat mGluR8 modulators via GIRK flux, primary screen, cell-based, thallium flux, HTS (AID 488969)", "settings": "HEK293 rat mGluR8, GIRK (G protein-gated inwardly rectifying potassium channel) thallium flux, FluoZin2; at 10 µM; stronger effect = higher value; submaximal glutamate (EC20) added with thallium"}
{"smiles": "O=C(CN1CCOCCOCCOCCOCC1)Nc1ccccc1", "z-score": 0.356}
{"smiles": "Cc1ccc(NC(NC(=O)OCCn2c([N+](=O)[O-])cnc2C)C(Cl)(Cl)Cl)cc1", "note": "(centres undefined)", "z-score": -0.062}
{"smiles": "COc1cc(NC(=O)CSc2c3c(nc4ccccc24)CCC3)cc(OC)c1OC", "z-score": -0.484}
{"smiles": "CCN(CC)c1nc2cc(OC)ccc2cc1C#N", "z-score": -0.0869}
{"smiles": "Cc1ccc2cccc(NC(=S)NC(=O)c3ccn(C)n3)c2n1", "z-score": "active: 6.02"}
{"smiles": "CCOC(=O)C1CCN(C(=O)CCCN2C(=O)c3ccccc3C2=O)CC1", "z-score": -0.664}
{"smiles": "Cc1noc(/C=C/c2ccco2)c1S(=O)(=O)N1CCC(C(=O)N(C)Cc2ccccc2)CC1", "z-score": -1.36}
{"smiles": "Cc1ccc(S(=O)(=O)N2CCOCC2)cc1C(=O)N1c2ccccc2Sc2ccccc21", "z-score": 0.231}
{"smiles": "COC(=O)C(C)N(C(=O)c1ccc(Cl)cc1)c1c(C)cccc1C", "note": "(centres undefined)", "z-score": -1.48}
{"smiles": "CCCn1c(=O)c(C(=O)Nc2ccccc2)c(O)c2ccccc21", "z-score": -0.0454}
{"smiles": "SC(COCc1ccccc1)CN1CCN(Cc2ccc3c(c2)OCO3)CC1", "note": "(centres undefined)", "z-score": "active: 3.02"}
{"smiles": "Cc1cc2ncn(C(=O)c3ccc4c(c3)OCO4)c2cc1C", "z-score": 0.0971}
{"smiles": "COc1cccc(OC)c1C(=O)Oc1ccc2c(c1)O/C(=C\\c1ccncc1)C2=O", "z-score": 0.431}
{"smiles": "COc1ccccc1CC(=O)N1CCCC1", "z-score": -0.143}
{"smiles": "COc1cc(NC(=O)C2=C(N3CCOCC3)/C(=C\\c3ccc(N(C)C)cc3)CCC2)cc(OC)c1OC", "z-score": -0.105}
{"smiles": "Cc1ccc(C(=O)NCCSC2CCCCC2)cc1S(=O)(=O)Nc1ccccc1", "z-score": -0.211}
{"smiles": "COc1ccccc1N=C1SC(C)CN1C(=O)C1CCC1", "note": "(centres undefined)", "z-score": 0.297}
{"smiles": "COc1ccc(C(c2sc3ncnn3c2O)N2CCN(c3ccccc3F)CC2)cc1OC", "note": "(centres undefined)", "z-score": -0.6}
{"smiles": "O=C(Nc1ccc(NC(=S)NC(=O)C(c2ccccc2)c2ccccc2)cc1)c1ccccc1", "z-score": 0.283}
{"smiles": "Cc1cc(C)c2cc(C)c3nnc(SCC(=O)NCc4ccc5c(c4)OCO5)n3c2c1", "z-score": -0.513}
{"smiles": "CCN1CCN(C(=O)CN(c2cccc(Br)c2)S(=O)(=O)c2ccccc2)CC1", "z-score": -0.269}
{"smiles": "COc1ccc(/C=N/n2c(=O)[nH]c3c([nH]c4ccc(C)cc43)c2=O)cc1CN1CCOCC1", "z-score": -0.0345}
{"smiles": "O=C(Nc1nnc(-c2ccc(Cl)cc2)o1)c1cccc(N2C(=O)CCC2=O)c1", "z-score": "active: 3.29"}
{"smiles": "CCC1(C)CC(C(CC(=O)O)c2ccc(C)cc2)CCO1", "note": "(centres undefined)", "z-score": -0.199}
{"smiles": "CC(NCCOCCOc1ccccc1)c1ccccc1", "note": "(centres undefined)", "z-score": 0.0881}
{"smiles": "CC(=O)c1ccc(N(C)C)cc1", "z-score": -0.896}
{"smiles": "Cc1cc(C)c2nc(SCC(=O)NCCN3C(=O)CSC3=O)cc(C)c2c1", "z-score": -0.238}
{"smiles": "O=C1c2cccc3cccc(c23)C(=O)N1CC1CCN(CC(O)COCc2ccc3c(c2)OCO3)CC1", "note": "(centres undefined)", "z-score": 0.758}
{"smiles": "CCOC(=O)N1CCN(c2ccc(C(C)=O)cc2F)CC1", "z-score": -0.263}
